Assay results: the supplement of paper PMC8728848
The other results are listed elsewhere or left out.

Legend:
Experiment in all cases: glycan array binding signal (z-score within array); higher = stronger binding
Conditions in all cases: glycan notation: IUPAC condensed, linker removed
[1] = molecular target: Gal(b1-3)GlcNAc(b1-2)Man(a1-3)[Gal(b1-3)GlcNAc(b1-2)Man(a1-6)]Man(b1-4)GlcNAc(b1-4)GlcNAc
How it was run: (§1)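 The binding signal is a Z-score computed within each array and averaged over linkers. Arrays of the same protein sequence at different concentrations or buffers were also averaged together. Data originate from 3228 arrays in the Consortium for Functional Glycomics database, kept only where the protein sequence was available.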

[2] = molecular target: Gal(b1-3)GlcNAc(b1-2)Man(a1-3)[Gal(b1-3)GlcNAc(b1-2)Man(a1-6)]Man(b1-4)GlcNAc(b1-4)[Fuc(a1-6)]GlcNAc
How it was run: as §1

[3] = molecular target: Gal(b1-3)GlcNAc(b1-2)Man(a1-3)[GlcNAc(b1-4)][Gal(b1-3)GlcNAc(b1-2)Man(a1-6)]Man(b1-4)GlcNAc(b1-4)GlcNAc
How it was run: as §1

[4] = molecular target: Gal(b1-3)GlcNAc(b1-2)[Gal(b1-3)GlcNAc(b1-6)]Man(a1-6)[Gal(b1-3)GlcNAc(b1-2)Man(a1-3)]Man(b1-4)GlcNAc(b1-4)GlcNAc
How it was run: as §1

[5] = molecular target: Gal(b1-3)GlcNAc(b1-3)Gal(b1-3)GlcNAc
How it was run: as §1

[6] = molecular target: Gal(b1-3)GlcNAc(b1-3)Gal(b1-4)Glc
How it was run: as §1

[7] = molecular target: Gal(b1-3)GlcNAc(b1-3)Gal(b1-4)GlcNAc
How it was run: as §1

[8] = molecular target: Gal(b1-3)GlcNAc(b1-3)Gal(b1-4)GlcNAc(b1-2)Man(a1-3)[Gal(b1-3)GlcNAc(b1-3)Gal(b1-4)GlcNAc(b1-2)Man(a1-6)]Man(b1-4)GlcNAc(b1-4)GlcNAc
How it was run: as §1

[9] = molecular target: Gal(b1-3)GlcNAc(b1-3)Gal(b1-4)GlcNAc(b1-2)[Gal(b1-3)GlcNAc(b1-3)Gal(b1-4)GlcNAc(b1-6)]Man(a1-6)[Gal(b1-3)GlcNAc(b1-3)Gal(b1-4)GlcNAc(b1-2)Man(a1-3)]Man(b1-4)GlcNAc(b1-4)[Fuc(a1-6)]GlcNAc
How it was run: as §1

[10] = molecular target: Gal(b1-3)GlcNAc(b1-3)Gal(b1-4)GlcNAc(b1-3)Gal(b1-4)GlcNAc(b1-2)[Gal(b1-3)GlcNAc(b1-3)Gal(b1-4)GlcNAc(b1-3)Gal(b1-4)GlcNAc(b1-6)]Man(a1-6)[Gal(b1-3)GlcNAc(b1-3)Gal(b1-4)GlcNAc(b1-3)Gal(b1-4)GlcNAc(b1-2)Man(a1-3)]Man(b1-4)GlcNAc(b1-4)[Fuc(a1-6)]GlcNAc
How it was run: as §1

[11] = molecular target: Gal(b1-3)GlcNAc(b1-3)Gal(b1-4)GlcNAc(b1-6)[Gal(b1-3)GlcNAc(b1-3)]Gal(b1-4)Glc
How it was run: as §1

[12] = molecular target: Gal(b1-3)GlcNAc(b1-3)Gal(b1-4)[Fuc(a1-3)]GlcNAc
How it was run: as §1

[13] = molecular target: Gal(b1-3)GlcNAc(b1-3)Gal(b1-4)[Fuc(a1-3)]GlcNAc(b1-6)[Gal(b1-3)GlcNAc(b1-3)]Gal(b1-4)Glc
How it was run: as §1

[14] = molecular target: Gal(b1-3)GlcNAc(b1-3)GalNAc
How it was run: as §1

[15] = molecular target: Gal(b1-3)GlcNAc(b1-6)Gal(b1-4)GlcNAc
How it was run: as §1

[16] = molecular target: Gal(b1-3)GlcNAc(b1-6)GalNAc
How it was run: as §1

[17] = molecular target: Gal(b1-3)GlcNAc(b1-6)[Gal(b1-3)]GalNAc
How it was run: as §1

Gal(b1-3)GlcNAc6S = molecular target: Gal(b1-3)GlcNAc6S
How it was run: as §1

[18] = molecular target: Gal(b1-3)[Fuc(a1-4)]GlcNAc
How it was run: as §1

[19] = molecular target: Gal(b1-3)[Fuc(a1-4)]GlcNAc(b1-2)Man
How it was run: as §1

[20] = molecular target: Gal(b1-3)[Fuc(a1-4)]GlcNAc(b1-2)Man(a1-3)[Gal(b1-3)[Fuc(a1-4)]GlcNAc(b1-2)Man(a1-6)]Man(b1-4)GlcNAc(b1-4)[Fuc(a1-6)]GlcNAc
How it was run: as §1

[21] = molecular target: Gal(b1-3)[Fuc(a1-4)]GlcNAc(b1-3)Gal(b1-3)[Fuc(a1-4)]GlcNAc
How it was run: as §1

[22] = molecular target: Gal(b1-3)[Fuc(a1-4)]GlcNAc(b1-3)Gal(b1-4)[Fuc(a1-3)]GlcNAc
How it was run: as §1

[23] = molecular target: Gal(b1-3)[Fuc(a1-4)]GlcNAc(b1-6)GalNAc
How it was run: as §1

[24] = molecular target: Gal(b1-3)[GlcNAc(b1-6)]GalNAc
How it was run: as §1

[25] = molecular target: Gal(b1-3)[Neu5Ac(a2-6)]GalNAc
How it was run: as §1

[26] = molecular target: Gal(b1-3)[Neu5Ac(a2-6)]GlcNAc(b1-4)Gal(b1-4)Glc
How it was run: as §1

[27] = molecular target: Gal(b1-3)[Neu5Ac(b2-6)]GalNAc
How it was run: as §1

Gal(b1-4)Gal = molecular target: Gal(b1-4)Gal
How it was run: as §1

[28] = molecular target: Gal(b1-4)GalNAc(a1-3)[Fuc(a1-2)]Gal(b1-4)GlcNAc
How it was run: as §1

B1: Di AAL2 (Agrocybe aegerita) (protein)
chain: MTSNVITQDLPIPVASRGFADIVGFGLDGVVIGRNAVNLQPFLAVKNFAQNAGGWLTTKHVRLIADTTGTGKGDIVGFGNAGVYVSVNNGKNTFADPPKMVIANFGYDAGGWRVEKHLRYLADIRKIGRADIIGFGEKGVLVSRNNGGLNFGPATLVLKDFGYDAGGWRLDRHLRFLADVTGNGHLDIVGFGDKHVFISRNNGDGTFAPAKSVIDNFCIDAGGWKIGDHPRFVADLTGDGTADIIGCGKAGCWVALNNGGGVFGQVKLVINDFGTDKGWQAAKHPRFIADLTGNGRGDVVGFGNAGVYVALNNGDGTFQSAKLVLKDFGVQQGWTVSKHRRFVVDLTGDGCADIIGFGEKETLVSYNDGKGNFGPVKALTNDFSFSGGKWAPETTVCWMANLDSSRHPAPAPMTSNVITQDLPIPVASRGFADIVGFGLDGVVIGRNAVNLQPFLAVKNFAQNAGGWLTTKHVRLIADTTGTGKGDIVGFGNAGVYVSVNNGKNTFADPPKMVIANFGYDAGGWRVEKHLRYLADIRKIGRADIIGFGEKGVLVSRNNGGLNFGPATLVLKDFGYDAGGWRLDRHLRFLADVTGNGHLDIVGFGDKHVFISRNNGDGTFAPAKSVIDNFCIDAGGWKIGDHPRFVADLTGDGTADIIGCGKAGCWVALNNGGGVFGQVKLVINDFGTDKGWQAAKHPRFIADLTGNGRGDVVGFGNAGVYVALNNGDGTFQSAKLVLKDFGVQQGWTVSKHRRFVVDLTGDGCADIIGFGEKETLVSYNDGKGNFGPVKALTNDFSFSGGKWAPETTVCWMANLDSSRH
[1]
  glycan array binding signal (z-score): -0.321
[2]
  glycan array binding signal (z-score): -0.339
[3]
  glycan array binding signal (z-score): -0.299
[4]
  glycan array binding signal (z-score): -0.331
[5]
  glycan array binding signal (z-score): -0.326
[6]
  glycan array binding signal (z-score): -0.32
[7]
  glycan array binding signal (z-score): -0.321
[8]
  glycan array binding signal (z-score): -0.258
[9]
  glycan array binding signal (z-score): -0.275
[10]
  glycan array binding signal (z-score): -0.015
[11]
  glycan array binding signal (z-score): -0.321
[12]
  glycan array binding signal (z-score): -0.321
[13]
  glycan array binding signal (z-score): -0.334
[14]
  glycan array binding signal (z-score): -0.327
[15]
  glycan array binding signal (z-score): -0.333
[16]
  glycan array binding signal (z-score): -0.324
[17]
  glycan array binding signal (z-score): -0.313
Gal(b1-3)GlcNAc6S
  glycan array binding signal (z-score): -0.322
[18]
  glycan array binding signal (z-score): -0.336
[19]
  glycan array binding signal (z-score): -0.229
[20]
  glycan array binding signal (z-score): -0.225
[21]
  glycan array binding signal (z-score): -0.31
[22]
  glycan array binding signal (z-score): -0.331
[23]
  glycan array binding signal (z-score): -0.309
[24]
  glycan array binding signal (z-score): 0.1
[25]
  glycan array binding signal (z-score): -0.293
[26]
  glycan array binding signal (z-score): -0.228
[27]
  glycan array binding signal (z-score): -0.329
Gal(b1-4)Gal
  glycan array binding signal (z-score): -0.327
[28]
  glycan array binding signal (z-score): -0.306
